Measured values: PubChem BioAssay AID686978 (National Center for Advancing Translational Sciences (NCATS), 2013)
Screen size: about 420,000 compounds; about 64,000 (15%) were called active. The inconclusive results got no clear call from the source; some entries with a clear call stand among them for comparison. Calls follow the shape of the dose curve; as a rule, active = well fitted inhibition curve with a large enough effect; inconclusive = small, poorly fitted or top-dose-only effect; inactive = flat fitted curve, though single readings scatter. No potency is given beside an inconclusive call; the fits are too rough.

Assay: qHTS for Inhibitors of human tyrosyl-DNA phosphodiesterase 1 (TDP1): qHTS in cells in absence of CPT; also: nearly all actives have a fitted effect of over 55% in size
Conditions: DT40 Tdp1-/- hTDP1 cells, no CPT, ATP luminescence, 48 h; activity change, negative = growth inhibition: at 46.2 µM (top of the series) unless noted
How it was run: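 Cells were dispensed at 400 per well, compounds added by pin tool, plates incubated ≥48 hr at 37 °C, then CellTiter-Glo added for 30 min at room temperature before luminescence reading. Line: DT40 Tdp1-/- complemented with hTDP1; camptothecin omitted.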
% is scaled to controls: 0 for no effect and ±100 for the full control effect; potency is read from the fitted curve at half-maximal effect; tags tell the direction and shape of the fitted curve.

Structure (SMILES)	Potency	activity change, negative = growth inhibition
CCCN(CCC)C(=O)CSc1nc2ccccc2c(=O)n1Cc1ccco1	active: 20.6 µM	–
CCc1nc(NCCCCCO)c2nnn(Cc3ccccc3F)c2n1	inactive	–
O=[N+]([O-])c1cc(S(=O)(=O)CCCN2CCOCC2)ccc1F	inconclusive [inhibitor, single point]	–
O=C(CN1CCN(Cc2ccccc2)CC1)N=Nc1c(O)[nH]c2ccccc12	inconclusive [inhibitor, partial curve, poor fit]	–
CC1CCCCC1NCc1cccc([N+](=O)[O-])c1 (configuration not stated)	inactive	–
Cc1ccc(N2CCN(C3=NC(=O)/C(=C\c4cccs4)S3)CC2)cc1	inactive	–
CCCCCCCc1c(O)nc(SCCN2CCOCC2)[nH]c1=O	inactive	–
Cc1ccc(S(=O)(=O)NC(=O)C2(C)CCN2C(=O)CCc2ccc(Cl)cc2Cl)cc1 (configuration not stated)	inactive	–
C=CCN1C(=O)C(Cc2ccc(OCC)cc2)S/C1=N\N=C\c1cccs1 (configuration not stated)	inconclusive [inhibitor, partial curve]	–
COc1ccc(CC(=O)NCc2ccccc2F)cc1S(=O)(=O)N1CCOCC1	inactive	–
CCOC(=O)c1ccc(NC(=O)CCc2nc(-c3ccccc3Cl)no2)cc1	active: 14.6 µM	–
COc1ccc(Cl)cc1NC(=O)CSc1nc(=O)n(CCN(C)C)c2c1CCCC2	inconclusive [inhibitor, single point]	–
Brc1cc(/C=N/n2cnnc2)oc1Br	inconclusive [inhibitor, partial curve]	–
COc1ccccc1NC(=O)C(C)OC(=O)C1CCC(C(C)(C)C)CC1 (configuration not stated)	inconclusive [inhibitor, single point]	–
O=C(CSc1n[nH]c(-c2ccncc2)n1)Nc1ccccn1	inconclusive [inhibitor, full curve, poor fit]	–
COC(=O)c1ccc(NC(=O)C(=O)NCCc2sc(-c3cccc(F)c3)nc2C)cc1	inconclusive [inhibitor, single point]	–
Cn1c(C(=O)NC2CCCCC2)cc2c(=O)n(C)c3ccccc3c21	active: 16.4 µM	–
CN(C)/C=C(/C#N)C(=O)c1cccc(Oc2ccc(C(C)(C)C)cc2)c1	–	inconclusive: -30.1% [inhibitor]
O=C(Cn1cnc2ccccc2c1=O)N1CCN(c2ccccc2)CC1	inactive	–
COc1ccc(C(O)c2ncc(-c3cccc(C(F)(F)F)c3)[nH]2)cc1 (configuration not stated)	inconclusive [inhibitor, single point]	–
COc1cc(C(=O)Nc2ccc(S(=O)(=O)N(C)c3ccccc3)cc2)cc(OC)c1OC	inconclusive [inhibitor, single point]	–
CC1CCN(C(=O)Cn2nnnc2CN2CCOCC2)CC1	inactive	–
CNC(=O)c1ccc(NC(=O)CC23CC4CC(CC(C4)C2)C3)cc1	–	inconclusive: -34.9% [inhibitor]
C=CCn1c(NS(=O)(=O)c2ccccc2)c(S(=O)(=O)c2ccc(C)cc2)c2nc3ccccc3nc21	inconclusive [inhibitor, single point]	–

Structure (SMILES)	Potency	activity change, negative = growth inhibition
O=C(COC(=O)c1cnccn1)NCc1ccc2c(c1)OCO2	inactive	–
CCC(Sc1ccc(Cl)cc1)C(=O)Nc1nnc(-c2cccc([N+](=O)[O-])c2)s1 (configuration not stated)	active: 13 µM	–
CCNc1nc(SC(C)C(=O)Nc2ccccc2)nc(N(C)C)n1 (configuration not stated)	inconclusive [inhibitor, single point]	–
O=C(NCCCN1CCCC1=O)c1cccc(S(=O)(=O)N2CCN(c3ccccc3)CC2)c1	inactive	–
CC(=O)Nc1ccc(S(=O)(=O)N2CCN(C(=O)N3CCCCCC3)CC2)cc1	inconclusive [inhibitor, partial curve, poor fit]	–
CC(C)[C@H](NC(=O)c1ccccc1)C(=O)OCC(=O)N1CCc2ccccc2C1	inconclusive [inhibitor, single point]	–
Cc1onc(-c2c(F)cccc2Cl)c1C(=O)N1CCCc2ccccc21	active: 18.4 µM	–
Cc1ccc(C(=O)N(C)CCOc2ccccc2)cc1S(=O)(=O)N1CCCCC1	inconclusive [inhibitor, single point]	–
COc1cccc(/C=N/NC(=O)c2cnn(-c3ccccc3)c2N)c1	active: 20.6 µM	–
CCOc1ccc(C(=O)N/N=C/c2cccc3cccnc23)cc1	active: 9.2 µM	–
Fc1ccc(-c2cc(-c3ccccc3)c3c(n2)-c2cc(F)ccc2OC3)cc1	inactive	–
COc1cccc(-c2coc3c(C)c4oc(=O)c(CC(=O)O)c(C)c4cc23)c1	inactive	–
Cc1cc(C)cc(NC(=O)CSc2oc(-c3cccs3)nc2S(=O)(=O)c2ccccc2)c1	active: 5.8 µM	–
Cc1ccc(SCC(=O)N2CCOCC2)cc1	inactive	–
Nc1nc(NCCCN2CCOCC2)nc(NCc2ccccc2)c1[N+](=O)[O-]	inconclusive [inhibitor, single point]	–
Cc1cccc(NCC(=O)c2c(N)n(C)c(=O)n(C)c2=O)c1C	inconclusive [inhibitor, partial curve]	–
CC(NC(=O)CN1c2cccc3cccc(c23)S1(=O)=O)c1ccc(S(N)(=O)=O)cc1 (configuration not stated)	inconclusive [inhibitor, single point]	–
COc1ccc(S(=O)(=O)NCC(c2ccco2)N2CCOCC2)cc1 (configuration not stated)	inactive	–
CCOC(=O)C(=CNc1ccc(C(F)(F)F)cc1Cl)C(=O)OCC	inconclusive [inhibitor, single point]	–
Cc1ccc(C(=O)OCC(=O)N2C(C)CCCC2C)cc1S(=O)(=O)N1CCCCC1 (configuration not stated)	inconclusive [inhibitor, single point]	–
CCOC(=O)c1c(NC(=O)COC(=O)c2ccccc2NC)sc(C(=O)N(C)C)c1C	inconclusive [inhibitor, single point]	–
CSc1nc2ccc(NC(=O)COc3ccccc3F)cc2s1	inconclusive [inhibitor, single point]	–
O=C(COC(=O)c1ccc(OC(F)F)cc1)NCc1cccs1	inconclusive [inhibitor, single point]	–
